Consider 54 compounds from ChEMBL document CHEMBL4888484, “Replenishing the malaria drug discovery pipeline: Screening and hit evaluation of the MMV Hit Generation Library 1 (HGL1) against asexual blood stage Plasmodium falciparum ,using a nano luciferase reporter read-out” (2022).

Structures are written as SMILES. The whole screen tested about 150,000 compounds, of which about 540 (0.36%) showed an effect of 50% or more. Some of the results follow.

In this assay the test system is Plasmodium falciparum. Nature of the assay: Primary screen in NF54 nanoGlo assay, in single point, at 2uM, 72h; a lower Z score goes with more inhibition. The assay is classed as functional, Erythrocyte. Conditions: timepoint 72 hour.
For the compound `CCN(CC(C)C)C(=O)C1(S(C)(=O)=O)CCOCC1`, the “% Inhibition” value was 8% and the Z score is reported as -0.96.
In the same order, the values of `CN1CCN(Cc2ccc(OCCCn3ccnc3)cc2)C[C@@H]1CO` are 0% and -0.04.
On to `Cn1nccc1[C@H](CO)NC(=O)COc1ccc(F)cc1`, for which the “% Inhibition” value amounted to 3% and the Z score is recorded as -0.46.
For the compound `COc1ccc(-c2nc3ccc(C)cn3c2NC(=O)CCC2CCCC2)cc1OC`, the “% Inhibition” value was determined as 5% and the Z score was -0.65.
With `COC(=O)c1ccc(O[C@@H](C)C(N)=O)cc1`, the “% Inhibition” value is recorded as -7% and the Z score is recorded as 1.27.
For `Cc1ccc(-c2nn(C)c(=O)c3c2CCCC3)cc1S(=O)(=O)NCc1cccnc1` the same measures were -11% and 1.62.
In the same order, the values of `Cc1nc(CCN2CCCCCC2=O)n(C2Cc3ccccc3C2)n1` are -7% and 0.95.
In the case of `O=C(CCC1CCCC1)Nn1cnc2ccccc2c1=O`, the “% Inhibition” value was -7% and the Z score is given as 0.84.
In the same order, the values of `COc1ccc(NC(=O)C2CCCCC2)cc1S(=O)(=O)N1CCCCC1` are 7% and -0.78.
In the case of `O=C(CCn1cnc2cc(-c3noc(-c4ccc(F)cc4)n3)ccc21)N1CCCCC1`, the “% Inhibition” value is -19% and the Z score is on record as 2.49.
Regarding `COCC[C@H]1COCCN1c1nccn2cnnc12`, the “% Inhibition” value is recorded as -15% and the Z score was 1.78.
In the case of `C[C@H](NC(=O)c1cc(Cl)c2c(c1)OCCCO2)c1cccs1`, the “% Inhibition” value is given as -3% and the Z score came out at 0.37.
As to `CCC(NCC1Cc2ccccc2O1)c1c(C)nn(C)c1C` (stereo not drawn), the “% Inhibition” value was found to be 4% and the Z score is on record as -0.66.
For `CCc1cnc(N(C)Cc2c(C)nn(C)c2C)nc1` the same measures were 3% and -0.39.
In the same order, the values of `Cc1ccc(CN2CCN(C(=O)c3csc(C)n3)[C@H]3CS(=O)(=O)C[C@H]32)o1` are -10% and 1.59.
`O=C(CN1C(=O)N[C@]2(CCc3ccccc3C2)C1=O)Nc1ccc2c(c1)OCO2`: the “% Inhibition” value was determined as 3% and the Z score is -0.59.
In the same order, the values of `COc1ccc(C[C@@H]2CC[C@H](CN3CCCOCC3)O2)cc1F` are -1% and 0.14.
In the same order, the values of `Cc1cccc(NC(=O)[C@@H]2CCCN2c2ncccc2C#N)n1` are -10% and 1.74.
As to `CCC(C)C(C)(O)CNC(=O)C(=O)Nc1c(F)cccc1F` (stereo not drawn), the “% Inhibition” value was -3% and the Z score is reported as 0.5.
Turning to `OCc1cc(/C=C/C2CCCCC2)c(F)cn1`, the “% Inhibition” value is reported as -5% and the Z score stood at 0.42.
In the same order, the values of `CC(NS(=O)(=O)c1ccc(NC(=O)Cc2ccc(Cl)c(Cl)c2)cc1)C1CC2CCC1C2` (stereo not drawn) are -8% and 0.81.
On to `N#Cc1c[nH]c(C(=O)N2CCC3(CCCCC3)C2)c1`, for which the “% Inhibition” value was -4% and the Z score is recorded as 0.58.
On to `CC(C)CCNC(=O)c1[nH]cnc1C(=O)N[C@H]1CCc2ccccc21`, for which the “% Inhibition” value stood at 6% and the Z score is reported as -0.73.
For the compound `Cc1cc2n(n1)CCC(=O)N2CC(=O)NC1CCCCC1`, the “% Inhibition” value is listed as -4% and the Z score was found to be 0.45.
For `Cc1cc(C(=O)N2CCN(c3nccnc3C#N)C[C@@H](O)C2)no1` the same measures were 12% and -1.58.
For `O=C(Nc1ccc(Cl)c(Cl)c1)N1CCc2nc(-c3ccccc3)nc(N3CCCCC3)c2C1` the same measures were -16% and 2.72.
For the compound `O=C(Nc1ccccc1)[C@H]1CCS(=O)(=O)C12CCN(C(=O)NCc1ccccc1)CC2`, the “% Inhibition” value is -7% and the Z score stood at 1.34.
For the compound `O=S(=O)(C1CC1)N1CCCC12CCC2`, the “% Inhibition” value is reported as -5% and the Z score is listed as 0.49.
Take `CC(=O)c1cccc(NC(=O)c2cccc(NS(=O)(=O)c3ccc4c(c3)OCCO4)c2)c1`: the “% Inhibition” value is -9% and the Z score is 1.48.
Regarding `CCOc1ccccc1NC(=O)Cn1cc(-c2ccccc2)c2ncn(CCCOC)c(=O)c21`, the “% Inhibition” value came to 5% and the Z score was -0.71.
For `O=C(Nc1ccc(C2CC2)cn1)N1CCCc2n[nH]cc21` the same measures were -1% and 0.22.
In the same order, the values of `CC1=NN(c2ccccc2)C(=O)C1C1C(=O)N(c2ccccc2)N=C1C` (stereo not drawn) are -6% and 1.05.
Consider `Cc1cnc2c(c1)N(C(=O)Cn1cc(Br)cn1)CCO2`, for which the “% Inhibition” value is recorded as -6% and the Z score amounted to 0.51.
On to `CC(C)[C@H](Cn1ccnn1)NS(=O)(=O)c1ccc2c(c1)CCCC2`, for which the “% Inhibition” value came to 10% and the Z score is listed as -1.29.
As for `Cc1cc(C)c(-n2cccn2)c(CN2Cc3[nH]cnc3C[C@H]2C(=O)O)c1`, the “% Inhibition” value is recorded as -4% and the Z score is listed as 0.52.
For `C[C@@H](c1ccon1)N(C)C(=O)CCc1cccnc1` the same measures were 10% and -1.62.
On to `CC1CN(CC(=O)NCCC#N)CC(C)O1` (stereo not drawn), for which the “% Inhibition” value was -5% and the Z score was found to be 0.65.
For `Cc1noc(C)c1S(=O)(=O)N1CC[C@H](Cc2nnc(-c3ccccc3)o2)C1` the same measures were -5% and 0.74.
On to `CC(O)CN1CCN(S(=O)(=O)c2ccco2)C(C)C1` (stereo not drawn), for which the “% Inhibition” value stood at 2% and the Z score is listed as -0.29.
For `Cc1ccccc1S(=O)(=O)N1CCOC[C@@H](CN(C)C)C1` the same measures were -7% and 0.89.
`O=C(CCc1ccccc1)C(=O)N1CCCOCC1`: the “% Inhibition” value was determined as 2% and the Z score is -0.4.
Regarding `NS(=O)(=O)c1ccc(CCNC(=O)CCS(=O)(=O)c2ccc(Cl)cc2)cc1`, the “% Inhibition” value is given as -27% and the Z score was determined as 3.16.
With `O=S1(=O)C[C@H](N2CCC3(CC2)OCCO3)[C@@H](S(=O)(=O)c2ccccc2)C1`, the “% Inhibition” value was -4% and the Z score is reported as 0.54.
For the compound `FC(F)(F)c1nc(NC[C@H]2CCCO2)c2nc[nH]c2n1`, the “% Inhibition” value is -4% and the Z score came to 0.73.
For `Cc1ccc(S(=O)(=O)c2ncccc2CN2CCCC2)cc1` the same measures were -8% and 1.15.
In the same order, the values of `Cc1noc(C)c1S(=O)(=O)N1CC(c2ncc(C)n2CC2CC2)C1` are -3% and 0.33.
`CC(C)(C)C[C@@H](CO)NC(=O)c1c(F)ccc(O)c1F`: the “% Inhibition” value was -3% and the Z score came out at 0.49.
Consider `c1nc(N2CCC[C@@H]2Cn2cncn2)c2cc[nH]c2n1`, for which the “% Inhibition” value is on record as -1% and the Z score is 0.11.
In the same order, the values of `O=C(C(Cc1c[nH]c2ccccc12)n1c(O)nc2ccccc2c1=O)N1CCCC1CO` (stereo not drawn) are -9% and 1.62.
Regarding `Cc1ccc(C2CC(C)CCN2S(=O)(=O)CCS(C)(=O)=O)o1` (stereo not drawn), the “% Inhibition” value turned out to be 3% and the Z score is on record as -0.34.
Consider `CN1C(=O)C[C@H](Nc2ccc(C(F)(F)F)cn2)C1=O`, for which the “% Inhibition” value came to 6% and the Z score was -0.65.
In the same order, the values of `Cc1ccc(CNC(=O)c2nnc(-c3cccnc3)o2)cc1` are -1% and 0.12.
As for `O=C1COCC2(CCC2)N1Cc1ccccc1`, the “% Inhibition” value is -15% and the Z score is on record as 1.91.
For `CCOc1cccc2c1OC1(C)C(C(=O)Nc3ccc(C)cc3C)C2NC(=O)N1Cc1ccccc1` (stereo not drawn) the same measures were -3% and 0.31.
